Test results published in PubChem BioAssay AID651820 (National Center for Advancing Translational Sciences (NCATS), 2012).
Hit rate of the full screen: of about 340,000 compounds, about 12,000 (3.5%) were called active. The shares of active, inactive and inconclusive entries below differ from those in the screen. Calls come from the whole dose curve; as a rule, active = well fitted inhibition curve with a large enough effect; inconclusive = small, poorly fitted or top-dose-only effect, or another doubt; inactive = no such curve, though single readings can be large or run the other way. Potencies of inconclusive entries are left out as doubtful fits.

Assay: qHTS Assay for Inhibitors of Hepatitis C Virus (HCV)
Conditions: Huh7.5.1 HCVcc-Cre (HCVcc is cell-culture hepatitis C virus) infection, luciferase reporter, 44 h; activity change, negative = inhibition: at 41.8 µM (top of the series) unless noted
In short: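 Compounds are dispensed onto cells plated 4 h earlier at 1,000 per well, with HCVcc-Cre virus (about 0.5 moi) added next. Following 44 h of culture, luminescent signal is measured for 15 sec after 15 min with substrate at room temperature.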
% is set by controls: 0 for no effect and ±100 for the full control effect; potency is the fitted concentration of half-maximal effect; tags give direction and shape of the fitted curve.

SMILES | Potency | activity change, negative = inhibition
CCc1nc2sc(C#N)c(N)c2c2c1CCCC2 | inconclusive [inhibitor, partial curve] | –
Fc1ccc(C(Nc2ccccn2)c2c[nH]c3ccccc23)cc1 (stereo unspecified) | inconclusive [inhibitor, single point] | –
CC(O)(CC(=O)CC(=O)c1ccccc1)c1ccccc1 (stereo unspecified) | inconclusive [inhibitor, single point] | –
Cc1ccc(-c2ccc(CCC(=O)O)n2NC(=O)c2ccco2)cc1 | – | inactive: -4.21%
Cc1cc([N+](=O)[O-])ccc1NC(=O)CCC(=O)N1CCCCCC1 | – | inactive: -2.68%
CCCOC(=O)CSc1nc(N)c(C#N)c(-c2ccco2)c1C#N | – | inactive: 18.2%
Cc1ccc2cc(C=C(C#N)C#N)c(N3CCCCC3)nc2c1 | inconclusive [inhibitor, partial curve] | –
CCc1ccc(OCc2n[nH]c(=S)n2C(C)CCCC(C)C)cc1 (stereo unspecified) | inconclusive [inhibitor, single point] | –
S=C(NCCc1ccc(Cl)cc1)Nc1ccc(Cl)cc1Cl | inconclusive [inhibitor, single point] | –
COc1cc(/C=N/NC(=O)c2nnn(-c3nonc3N)c2-c2cccs2)ccc1O | – | inactive: 3.19%
Cn1c(C=O)c(C#Cc2ccccc2)c2ccccc21 | active: 7.94 µM | –
Cc1cc(-n2c(SCC(=O)NCCC3=CCCCC3)nc3n[nH]c(C)c3c2=N)ccc1Cl | inconclusive [inhibitor, partial curve] | –
CCn1ncc(C2=NOC(C(=O)Nc3c(C)nn(Cc4ccc(F)cc4)c3C)C2)c1C (stereo unspecified) | inconclusive [inhibitor, single point] | –
CCCCOc1ccc(CSc2nc(C)[nH]c2[N+](=O)[O-])cc1[N+](=O)[O-] | – | inconclusive: -44.1% [inhibitor]
CC1CCCN(C(=O)CSc2nnc(-c3c[nH]c4ccccc34)o2)C1 (stereo unspecified) | – | inactive: -27.1%
COc1ccc(Cl)cc1NC(=S)NC(=O)c1ccco1 | inconclusive [inhibitor, single point] | –
O=C1N=C(N2CCc3ccccc3C2)S/C1=C\c1cccc(O)c1 | – | inactive: 4.13%
C[C@H](CO)N1C[C@H](C)[C@@H](CN(C)C)Oc2c(NC(=O)CCCCCC(=O)Nc3ccccc3N)cccc2C1=O | inconclusive [inhibitor, single point] | –
COc1ccc(S(=O)(=O)n2cccc2)cc1OC | – | inactive: -11.9%
CC(CCN1CC1)=NNC(=O)Nc1cccc2ccccc12 | inconclusive [inhibitor, single point] | –
Cc1cccc(NC(=S)N(CCCN(C)C)Cc2cc3cc4c(cc3[nH]c2=O)OCO4)c1 | inconclusive [inhibitor, single point] | –
N#C[C@]1(S(=O)(=O)c2ccccc2)C[C@@H]2ON=C(c3cccc(Br)c3)[C@@H]2C1 | inconclusive [inhibitor, single point] | –
N#C/C(=C\c1cn(CCOc2ccccc2)c2ccccc12)C(=O)NCc1cccs1 | inconclusive [inhibitor, single point] | –

SMILES | Potency | activity change, negative = inhibition
Cc1nc(NC(=O)c2ccccc2)sc1Cc1ccc2c(c1)OCO2 | inconclusive [inhibitor, single point] | –
Cc1cccc(C)c1NC(=O)C(=O)NCCc1c[nH]c2ccccc12 | inconclusive [inhibitor, single point] | –
CCC(=O)N1CCc2cc(Br)cc(S(=O)(=O)N3CCC(C(=O)NCCCOC(C)C)CC3)c21 | – | inactive: -10.7%
CCc1n[nH]c(=S)n1/N=C/c1ccc(N(CC)CC)cc1 | – | inactive: -21.1%
Cc1ccc(-c2cc3ccccc3nc2N2CCOCC2)cc1 | active: 10 µM | –
O=C1C=CC(=O)C2C1C1(Cl)C(Cl)=C(Cl)C2(Cl)C1(Cl)Cl (stereo unspecified) | inconclusive [inhibitor, single point] | –
CCn1c(C)c2c(C)nnc(C)c2c1C | inconclusive [inhibitor, single point] | –
CCOC(=O)C1C(=O)C(=O)N(C2CCCCC2)C1C(=O)OCC (stereo unspecified) | – | inactive: -9.19%
CCOc1ccc(S(=O)(=O)Nc2cccc(C(=O)NCC3CCCO3)c2)cc1 (stereo unspecified) | inconclusive [inhibitor, partial curve] | –
N#Cc1ccc(CN2CCN(C(=O)c3cc(Cl)c4c(c3)OCCO4)CC2)cc1 | inconclusive [inhibitor, single point] | –
COc1ccc(OC)c(NC(=O)CCN2CCCC(C)C2)c1 (stereo unspecified) | inconclusive [inhibitor, single point] | –
Cc1ccc(NC(=O)CCS(=O)(=O)c2ccccc2)cc1S(=O)(=O)N1CCOCC1 | – | inactive: -5.36%
CCCCc1n[nH]c2c1/C(=N/O)CC(c1ccccc1)C2 (stereo unspecified) | inconclusive [inhibitor, single point] | –
Cc1cc(C)c2sc(N(CCCN(C)C)C(=O)c3ccc(Br)s3)nc2c1 | active: 12.6 µM | –
COc1ccc(C(=O)N=C2SC3CS(=O)(=O)CC3N2c2ccc(N(C)C)cc2)cc1OC (stereo unspecified) | – | inactive: -25.1%
O=C(Nc1ccc(F)cc1)Nc1ccc(N2CCCC2)c(S(=O)(=O)Nc2ccccc2Cl)c1 | active: 6.31 µM | –
CC(C)[C@H](NC(=O)N1CCn2c1nc1ccccc12)C(=O)NC1CCCCC1 | inconclusive [inhibitor, single point] | –
CCOc1ccc(N2CC(NC(=O)c3cccc4ccccc34)CC2=O)cc1 (stereo unspecified) | – | inactive: -8.64% [at 8.37 µM]
CCOC(=O)c1ccc(NC(=O)N2CCN(C(=O)c3ccco3)CC2)cc1 | inconclusive [inhibitor, full curve, poor fit] | –
COc1ccc(CCNC(=O)CSc2nc(O)cc(=O)[nH]2)cc1OC | – | inactive: 18.1%
Cc1ccc(C(=O)/C=C/C(=O)c2ccc(C)cc2)cc1 | – | inactive: 0.0142%
O=C(CSc1nnnn1C1CCCCC1)N1c2ccccc2Sc2ccccc21 | inconclusive [inhibitor, single point] | –
COc1cc(CNn2c(C)n[nH]c2=S)cc(Br)c1OCc1ccc(F)cc1 | inconclusive [inhibitor, single point] | –
